About 14,000 (4.5%) of roughly 310,000 compounds showed an effect of 50% or more. Effects have a minus sign here. Some of the results follow.
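Also: peak tail current of the secondary pulse compared with the same well before compound.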

For the test, the target named is human ether-à-go-go-related gene (hERG) potassium channel (human, UniProt Q12809). The test is described as follows: primary screen, population patch clamp on CHO cells stably expressing hERG.
Sequence of human ether-à-go-go-related gene (hERG) potassium channel (Q12809 whole entry, looked up): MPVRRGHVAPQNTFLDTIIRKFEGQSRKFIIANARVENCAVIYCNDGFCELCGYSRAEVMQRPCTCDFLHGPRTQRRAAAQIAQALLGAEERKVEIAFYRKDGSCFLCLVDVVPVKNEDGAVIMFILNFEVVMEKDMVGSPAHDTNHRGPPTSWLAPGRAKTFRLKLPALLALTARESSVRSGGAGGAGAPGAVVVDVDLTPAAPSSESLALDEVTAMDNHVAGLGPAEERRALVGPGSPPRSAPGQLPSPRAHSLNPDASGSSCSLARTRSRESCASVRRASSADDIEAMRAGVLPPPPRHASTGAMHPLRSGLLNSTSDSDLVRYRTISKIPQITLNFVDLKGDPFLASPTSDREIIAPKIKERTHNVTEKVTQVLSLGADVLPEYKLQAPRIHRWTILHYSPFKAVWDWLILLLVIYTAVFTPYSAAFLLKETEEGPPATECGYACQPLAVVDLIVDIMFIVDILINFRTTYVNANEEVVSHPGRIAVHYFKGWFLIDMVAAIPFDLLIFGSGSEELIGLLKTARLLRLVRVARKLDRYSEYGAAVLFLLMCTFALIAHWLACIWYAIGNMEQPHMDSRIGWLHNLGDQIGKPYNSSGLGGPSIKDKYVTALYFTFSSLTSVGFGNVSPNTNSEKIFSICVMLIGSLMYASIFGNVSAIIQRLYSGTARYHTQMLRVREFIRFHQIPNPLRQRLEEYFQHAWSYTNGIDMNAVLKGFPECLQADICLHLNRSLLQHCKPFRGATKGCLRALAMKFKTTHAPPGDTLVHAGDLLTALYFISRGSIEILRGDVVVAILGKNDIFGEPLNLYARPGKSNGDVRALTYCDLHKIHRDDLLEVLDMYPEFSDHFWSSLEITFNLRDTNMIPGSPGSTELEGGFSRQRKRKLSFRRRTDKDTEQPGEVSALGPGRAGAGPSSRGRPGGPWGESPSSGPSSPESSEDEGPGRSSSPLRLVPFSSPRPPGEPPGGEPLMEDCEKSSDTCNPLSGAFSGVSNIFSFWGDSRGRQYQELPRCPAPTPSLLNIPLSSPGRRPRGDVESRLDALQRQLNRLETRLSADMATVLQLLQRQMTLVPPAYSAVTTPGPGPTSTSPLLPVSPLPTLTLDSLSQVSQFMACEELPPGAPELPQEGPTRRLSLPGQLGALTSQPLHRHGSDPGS
For `Cc1ccc2cccc(OCC(=O)Nc3ccc4c(c3)OCO4)c2n1`, the “hERG current change (%, negative = inhibition) at 10uM” value is -15.5%. For `COc1cccc(NC(=O)c2ccc(N3C(=O)C4CC=CCC4C3=O)cc2)c1` (centres unmarked) the value was -3.88%; for `Cc1ccc(N2C(=O)CN=C2Nc2nc(C)cc(C)n2)cc1`, 0.118%; for `COC(=O)c1ccc(OCC2c3cc(OC)c(OC)cc3CCN2C(=O)C2CC2)cc1` (centres unmarked), -56.3%. On to `COC(=O)C1N[C@@H]([C@@H](NC(=O)COc2ccccc2)C(=O)NCc2ccsc2)SC1(C)C` (some centres unmarked), for which the “hERG current change (%, negative = inhibition) at 10uM” value was -18.9%. On to `Cc1cc(C(=O)Cn2nc(C(=O)O)c3ccccc3c2=O)c(C)n1CCc1ccc(Cl)cc1`, for which the “hERG current change (%, negative = inhibition) at 10uM” value is given as -10.4%. With `CCCNC(=O)CN1C(=O)COc2ccc(S(=O)(=O)N3CC(C)CC(C)C3)cc21` (centres unmarked), the “hERG current change (%, negative = inhibition) at 10uM” value is -5.01%. For `COc1ccc(NC(=S)N(CCCN2CCC(C)CC2)Cc2cccs2)cc1` the value was -68.2%; for `C=CCNC(=S)N1CCN(Cc2ccccc2)CC1.O=C(O)C(=O)O`, 6.48%. For `Cc1ccc(OCCSc2nc(NC(C)C)nc(NC(C)C)n2)cc1` the value was -11.6%; for `Nc1c2c(nc3sc4c(c13)CCCC4)CCCCC2`, -6.3%; for `CCCOc1ccc(C(CC(=O)O)NC(=O)Cc2ccccc2)cc1` (centres unmarked), 9.79%. In the case of `COc1ccccc1NC(=O)CN(C)S(=O)(=O)c1ccc2c(c1)CCC(=O)N2` it was -45.3%. As to `CCC(C)NC(=O)CSc1ncnc2sccc12` (centres unmarked), the “hERG current change (%, negative = inhibition) at 10uM” value came out at 11.7%. For `CSc1ccc(N2C(=O)NC3(CCCCC3)C2=O)cc1` the value was 5.31%; for `CCOc1ccc2oc(C(=O)OCC(=O)N3CCCC(C)C3)c(C)c2c1` (centres unmarked), -44.9%; for `O=C(COC(=O)Cn1cnc2ccccc2c1=O)NCc1ccccc1Cl`, 10.9%. Turning to `CSc1nc(Cl)c(Cc2ccc(OCC(C)C)cc2)c(N2CCOCC2)n1`, the “hERG current change (%, negative = inhibition) at 10uM” value turned out to be 11.4%. For `O=S1(=O)CC/C(=N\Nc2ccc(F)cc2)c2ccsc21` the value was -13.7%. For `Cc1cc2c(c(=O)o1)C(C1C=CCCC1)C(C#N)=C(N)O2` (centres unmarked) the value was -4.08%; for `COc1ccc(S(=O)(=O)N2CCCCC2)cc1NC(=O)c1ccco1`, -9.54%.

Take `CC(C)c1ccc(CN2CCC(C(=O)NCc3cccnc3)CC2)cc1.O=C(O)C(=O)O`: the “hERG current change (%, negative = inhibition) at 10uM” value is -52.1%. In the case of `O=C(CCCN1C(=O)/C(=C/c2ccccc2)SC1=S)Nc1ccc(C(=O)O)c(O)c1` it was 6.6%; in that of `CC(=O)c1ccc(OCc2ncc(C(F)(F)F)cc2Cl)cc1`, -3.48%. In the case of `O=C(NCC1CCCO1)C(C(=O)c1ccccc1)n1cc(Cl)ccc1=O` (centres unmarked) it was -4.07%. For `COC(=O)C(C)Sc1nnc2n(-c3cccc(C)c3)c(=O)c3c4c(sc3n12)CCCC4` (centres unmarked) the value was -19.3%; for `COc1ccc(OC)c(/C=N/c2c(-c3ccc(O)c(OC)c3)nc3ccccn23)c1`, 2.87%; for `CC(=O)N1CCN(c2ccc(NCc3ccco3)cc2)CC1`, 8.93%. Take `Cc1csc(N(C(=O)c2cccc(S(=O)(=O)N(C)C)c2)c2ccccc2)n1`: the “hERG current change (%, negative = inhibition) at 10uM” value is listed as -15.9%.

As for `O=C(NC1CC1)C1=NOC(CNc2ncc(C(F)(F)F)cc2Cl)C1` (centres unmarked), the “hERG current change (%, negative = inhibition) at 10uM” value is given as -48.6%. In the case of `CCC(CC)C(=O)NCCc1ccc(F)cc1` it was 12.1%; in that of `CCOC(=O)c1c(C)[nH]c(C(=O)N2CCN(c3ccc(OC)cc3)CC2)c1C`, -0.628%; in that of `O=C(CCNC(=O)c1ccc(Br)cc1)Nc1cc(Cl)ccc1-n1cncn1`, -39.4%. For `CCOC(=O)N1CCN(C(=O)c2cn(CC)c3ccc(S(=O)(=O)N4CCCC4)cc3c2=O)CC1` the value was -8.59%. In the case of `CN(C)C(=O)c1nc2ccc(Cl)cn2c1CN1CCCC(OCc2cccnc2)C1` (centres unmarked) it was -57.9%; in that of `CC(=O)c1c(C)[nH]c(C(=O)COC(=O)c2c(C)noc2C)c1C`, 6.23%. For `O=S(=O)(Cc1ccccc1)Nc1cccc(Br)c1`, the “hERG current change (%, negative = inhibition) at 10uM” value was determined as 7.8%. In the case of `COCCCNc1nc2ccccc2nc1NS(=O)(=O)c1ccc(F)cc1` it was 14.6%; in that of `COC(=O)c1c(NC(=O)c2ccco2)sc2c1C(C(=O)OC)CC2` (centres unmarked), 9.19%. In the case of `COc1ccc(-n2c(=S)[nH]c3sc4c(c3c2=O)CCc2ccccc2-4)cc1` it was 17.1%. In the case of `C=C(C)C1CC=C(C)/C(=N/Nc2ccccc2[N+](=O)[O-])C1` (centres unmarked) it was 15.9%; in that of `O=C(CCCc1c[nH]c2ccccc12)Nc1ccc(S(=O)(=O)Nc2ncccn2)cc1`, -5.28%; in that of `COc1ccccc1CNc1nc2nc(C)cc(=O)n2[nH]1`, 3.67%. With `Cc1ccc(CN=C2Nc3ccccc3CS2)cc1`, the “hERG current change (%, negative = inhibition) at 10uM” value turned out to be 12.7%. For the molecule `O=C(CCN1CCN(c2ccccc2F)CC1)Nc1ccc2c(c1)OCO2`, the “hERG current change (%, negative = inhibition) at 10uM” value was -27.6%.

Turning to `Cc1cccc(NC(=O)CNC(=O)COc2cc(F)ccc2[N+](=O)[O-])c1C`, the “hERG current change (%, negative = inhibition) at 10uM” value came out at 1.21%.

On to `CC(=O)/C(=N/Nc1ccccc1Cl)Sc1nnc(C(O)c2ccccc2)n1-c1ccccc1` (centres unmarked), for which the “hERG current change (%, negative = inhibition) at 10uM” value is on record as -23.7%. With `CC(O)/C=C/c1ccc2ccccc2n1` (centres unmarked), the “hERG current change (%, negative = inhibition) at 10uM” value was -2.74%. In the case of `Cc1ccc(C)c(S(=O)(=O)NCc2ccncc2)c1` it was 4.22%. As to `CC(C)COc1ccc(/C(O)=C2/C(=O)C(=O)N(CCN(C)C)C2c2ccncc2)cc1` (centres unmarked), the “hERG current change (%, negative = inhibition) at 10uM” value came to 15.8%.

Turning to `CC1CCCN(C(=S)SCC(=O)c2cc(Br)cc(Br)c2O)C1` (centres unmarked), the “hERG current change (%, negative = inhibition) at 10uM” value was determined as 5.78%. Consider `CN(CC(=O)NCCc1ccc(S(N)(=O)=O)cc1)CC(=O)Nc1ccccc1Cl`, for which the “hERG current change (%, negative = inhibition) at 10uM” value was -3.11%.

As to `COc1ccc(CNC(=S)Nc2ccc(F)c(Cl)c2)cc1OC`, the “hERG current change (%, negative = inhibition) at 10uM” value is recorded as -2.94%. In the case of `CN(C)C(=S)N=Nc1[nH]c2ccccc2c1O` it was 16.4%; in that of `COc1ccccc1N=C(C)C1=C(O)COC1=O`, 17.4%; in that of `O=C(COc1ccccc1)NCC(=O)Nc1cccc2ccccc12`, 9.81%.

Regarding `CCOc1cc(/C=C/C(=O)O)ccc1OCc1ccccc1`, the “hERG current change (%, negative = inhibition) at 10uM” value was found to be 3.01%. In the case of `Cc1cccc(C)c1NC(=S)NCc1ccccc1` it was 4.74%; in that of `Cc1ccc(CNS(=O)(=O)c2ccc([N+](=O)[O-])cc2)cc1`, 6.33%. As to `Cc1cc(CNC(=O)COC(=O)c2ccc(Cl)c(N)c2)cc(C)c1O`, the “hERG current change (%, negative = inhibition) at 10uM” value was -0.169%.

As to `O=C(COC(=O)c1ccncc1)Nc1cc(Cl)ccc1Cl`, the “hERG current change (%, negative = inhibition) at 10uM” value was found to be 6.07%. Consider `CCN(CC(=O)NC(C)C)C(=O)[C@@H](NC(=O)c1ccco1)C(C)C`, for which the “hERG current change (%, negative = inhibition) at 10uM” value amounted to 11.5%. For `CN(C)c1ccc(C(=O)Nc2cccc(S(=O)(=O)NC3=NCCCCC3)c2)cc1` the value was -8.02%.

Consider `O=C(c1cn(-c2ccccc2)nc1-c1ccc(F)cc1)N1CCCCC1`, for which the “hERG current change (%, negative = inhibition) at 10uM” value was -10.6%.

With `COC(=O)c1[nH]c2c(c1C)C(=O)CC(c1ccc(OC)cc1)C2` (centres unmarked), the “hERG current change (%, negative = inhibition) at 10uM” value was 11%. In the case of `CN(C)C(=O)Cn1cnc2c(cnn2-c2ccc(F)cc2)c1=O`, the “hERG current change (%, negative = inhibition) at 10uM” value is given as -2.06%. For `COc1cc(/C=C/C(=O)OCC(=O)NCc2ccco2)ccc1OC(F)F`, the “hERG current change (%, negative = inhibition) at 10uM” value worked out at 6.87%.

For `Cc1nc2ccccc2c(C)c1C(=O)c1ccc(F)cc1.Cl`, the “hERG current change (%, negative = inhibition) at 10uM” value was determined as 7.17%. For `Cc1ccc(S(=O)(=O)NCc2csc(C)n2)c(C)c1` the value was 10.1%. In the case of `O=C(Nc1ccc2c(c1)OCCO2)c1cccnc1Oc1ccccc1` it was 10.9%; in that of `O=c1oc2ccccc2c(N2CCOCC2)c1[N+](=O)[O-]`, 10.2%; in that of `Cc1cccc(NC(=O)c2cc3cc([N+](=O)[O-])ccc3s2)n1`, 9.94%.

For `COc1ccc(S(N)(=O)=O)cc1-c1nnc2c3ccccc3c(C)nn12`, the “hERG current change (%, negative = inhibition) at 10uM” value was determined as 14.5%.

For the molecule `O=C(Nc1ccc(Cl)cc1)Nc1nnc(CSCc2ccccc2Cl)s1`, the “hERG current change (%, negative = inhibition) at 10uM” value is -9.46%.

As to `COc1ccc(NC(=O)CSc2nnc(-c3cccs3)n2C)cc1OC`, the “hERG current change (%, negative = inhibition) at 10uM” value amounted to 8.13%. As to `CCOc1ccc(Nc2nc(N(C)c3ccccc3)nc(N)c2[N+](=O)[O-])cc1`, the “hERG current change (%, negative = inhibition) at 10uM” value stood at 31.4%. For `CC(C)(C)NS(=O)(=O)c1ccc(CCC(=O)O)cc1` the value was -3.85%. For `O=C(CCn1cccc1)NCc1ccccc1` the value was 8.12%; for `COc1cccc(C2NC(CCSC)(C(=O)O)C3C(=O)N(C(C)C)C(=O)C23)c1O` (centres unmarked), -9.53%; for `O=C(N=Nc1c(O)[nH]c2ccc(Br)cc12)c1cc(-c2cccc3ccccc23)n[nH]1`, 12.3%.

On to `O=C(Nc1nc(-c2ccccn2)cs1)c1cc2ccccc2o1`, for which the “hERG current change (%, negative = inhibition) at 10uM” value was -8.37%. For `COc1ccccc1NC(=O)CCC(=O)Nc1nnc(C(F)(F)F)s1` the value was -7.32%. For `COc1ccc(CNC(=O)C2CCCN2)cc1OC.O=C(O)C(=O)O` (centres unmarked) the value was 11.1%. As to `CC(OC(=O)c1nsc(Cl)c1Cl)C(=O)NCc1ccc2c(c1)OCO2` (centres unmarked), the “hERG current change (%, negative = inhibition) at 10uM” value is -6.28%.

`CCc1cccc(OCC2Cn3c(nc4c3c(=O)n(C)c(=O)n4C)O2)c1` (centres unmarked): the “hERG current change (%, negative = inhibition) at 10uM” value was 3.18%. In the case of `CCOC(=O)CC1CCCCN1C(=O)c1ccc2nc(CCOC)oc2c1` (centres unmarked) it was 16.3%.

For `CN(CC(=O)Nc1ccc(F)cc1Cl)Cc1cccs1`, the “hERG current change (%, negative = inhibition) at 10uM” value is reported as -7.44%.

In the case of `Cc1cccc(NC(=O)C(C)n2cc([N+](=O)[O-])cn2)n1` (centres unmarked), the “hERG current change (%, negative = inhibition) at 10uM” value is given as -7.48%. For `COc1ccc(N2CC(C(=O)Nc3c(C(N)=O)oc4ccccc34)CC2=O)cc1` (centres unmarked) the value was -15%.
